# Measured values reported in publication PMC9100884, “Semi-Synthesis of N-Aryl Amide Analogs of Piperine from Piper nigrum and Evaluation of Their Antitrypanosomal, Antimalarial, and Anti-SARS-CoV-2 Main Protease Activities” (Molecules, 2022).
# Target: SARS-CoV-2 3C-like main protease (3CLPro) (Severe acute respiratory syndrome coronavirus 2, UniProt P0DTD1)
# Experiment: SARS-CoV-2 3CLPro activity assay with fluorogenic substrate
# Type: biochemical
# Settings: for Relative Protease Activity at 100 μM (%RFU/s ± S.D.): compound at 100 μM, relative to initial rate without inhibitor, 0.2 μM 3CLPro; for inhibition at 100 µM: read-out: inhibition toward 3CLPro
SMILES,Relative Protease Activity at 100 μM (%RFU/s ± S.D.),IC50,inhibition at 100 µM
"O=C(/C=C/C=C/c1ccc2c(c1)OCO2)Nc1ccccc1 [Compound 3, (2E,4E)-5-(benzo[d][1,3]dioxol-5-yl)-N-phenylpenta-2,4-dienamide]",55.1 ± 1.1 %RFU/s,–,–
"O=C(/C=C/C=C/c1ccc2c(c1)OCO2)N1CCCCC1 [Piperine (1), Piperine]",31.0 ± 2.8 %RFU/s,178.4 ± 1.2 µM,~70%
"COc1ccc(NC(=O)/C=C/C=C/c2ccc3c(c2)OCO3)c(OC)c1 [Compound 4, (2E,4E)-5-(benzo[d][1,3]dioxol-5-yl)-N-(2,4-dimethoxyphenyl)penta-2,4-dienamide]",69.0 ± 6.1 %RFU/s,–,–
"COc1ccc(OC)c(NC(=O)/C=C/C=C/c2ccc3c(c2)OCO3)c1 [Compound 5, (2E,4E)-5-(benzo[d][1,3]dioxol-5-yl)-N-(2,5-dimethoxyphenyl)penta-2,4-dienamide]",31.8 ± 5.7 %RFU/s,107 ± 1.2 µM,~70%
"O=C(O)/C=C/C=C/c1ccc2c(c1)OCO2 [Piperic acid (2), Piperic acid]",46.9 ± 1.4 %RFU/s,–,–
